The list shows a part of the results.
Biological target: T1, MBP-FoxP1dN (Mus musculus, UniProt P58462 326-579)
T1 sequence: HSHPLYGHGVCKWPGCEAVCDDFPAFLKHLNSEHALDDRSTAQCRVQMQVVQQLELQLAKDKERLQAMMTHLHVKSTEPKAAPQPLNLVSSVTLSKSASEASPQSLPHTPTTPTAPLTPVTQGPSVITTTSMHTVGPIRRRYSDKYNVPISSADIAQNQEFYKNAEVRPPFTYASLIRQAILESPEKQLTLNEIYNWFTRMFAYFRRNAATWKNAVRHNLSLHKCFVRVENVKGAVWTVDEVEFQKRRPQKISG
Assay: PD-seq (MBP pull-down with sequencing); 20 mM Tris-HCl pH 7.5, 100 mM NaCl, 1.5 mM MgCl2, 0.4 uM protein, 0.1 uM dsDNA library, 30 min, room temperature, amylose pull-down; high values mean tight binding
Conditions: protein: recombinant; tags: His6-MBP; chain copies: 2; dsDNA, one strand shown
In short: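 Mouse FoxP3 or FoxP1 fragment lacking the N-terminus, His6-MBP-tagged and expressed in E. coli, was incubated at 0.4 µM with 0.1 µM Klenow-filled degenerate double-stranded DNA library for 30 min at room temperature in Tris pH 7.5 buffer with NaCl and MgCl2. Complexes captured on amylose resin were washed three times and their DNA sequenced on Illumina. Binding is reads-per-million enrichment of pull-down over input, replicates pooled.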

Sequence	binding signal
GATGATTGTTCTCCCAGCTGATGAATTTTCCGTATCGAGTAAACAAATTTTCCTAATCTTTCTGTTCAAGCGCCATCTAC	0.944 RPM ratio (pull-down/input)
GATGATTGTTCTCCCAGCTGATGAATTTACAAGGTCGAGTAAACAAATTTTCCTAATCTTTCTGTTCAAGCGCCATCTAC	1.23 RPM ratio (pull-down/input)
GATGATTGTTCTCCCAGCTGATGAATTAGCACGGTCGAGTAAACAAATTTTCCTAATCTTTCTGTTCAAGCGCCATCTAC	0.808 RPM ratio (pull-down/input)
GATGATTGTTCTCCCAGCTGATGAATTGTAATTTTCGAGTAAACAAATTTTCCTAATCTTTCTGTTCAAGCGCCATCTAC	1.19 RPM ratio (pull-down/input)
GATGATTGTTCTCCCAGCTGATGAATTGGAGTTATCGAGTAAACAAATTTTCCTAATCTTTCTGTTCAAGCGCCATCTAC	0.984 RPM ratio (pull-down/input)
GATGATTGTTCTCCCAGCTGATGAATTACAAGTGTCGAGTAAACAAATTTTCCTAATCTTTCTGTTCAAGCGCCATCTAC	1.27 RPM ratio (pull-down/input)
GATGATTGTTCTCCCAGCTGATGAATTGTAAGATTCGAGTAAACAAATTTTCCTAATCTTTCTGTTCAAGCGCCATCTAC	0.971 RPM ratio (pull-down/input)
GATGATTGTTCTCCCAGCTGATGAATTGTAGTTTTCGAGTAAACAAATTTTCCTAATCTTTCTGTTCAAGCGCCATCTAC	1.43 RPM ratio (pull-down/input)
GATGATTGTTCTCCCAGCTGATGAATTACAATTGTCGAGTAAACAAATTTTCCTAATCTTTCTGTTCAAGCGCCATCTAC	1.4 RPM ratio (pull-down/input)
GATGATTGTTCTCCCAGCTGATGAATTTCTTAGTTCGAGTAAACAAATTTTCCTAATCTTTCTGTTCAAGCGCCATCTAC	0.903 RPM ratio (pull-down/input)
GATGATTGTTCTCCCAGCTGATGAATTCATTGGTTCGAGTAAACAAATTTTCCTAATCTTTCTGTTCAAGCGCCATCTAC	0.877 RPM ratio (pull-down/input)
GATGATTGTTCTCCCAGCTGATGAATTAGCAGTGTCGAGTAAACAAATTTTCCTAATCTTTCTGTTCAAGCGCCATCTAC	0.94 RPM ratio (pull-down/input)
GATGATTGTTCTCCCAGCTGATGAATTAACGCAGTCGAGTAAACAAATTTTCCTAATCTTTCTGTTCAAGCGCCATCTAC	0.975 RPM ratio (pull-down/input)
GATGATTGTTCTCCCAGCTGATGAATTTTGTGAATCGAGTAAACAAATTTTCCTAATCTTTCTGTTCAAGCGCCATCTAC	1.06 RPM ratio (pull-down/input)
GATGATTGTTCTCCCAGCTGATGAATTTCTTTGTTCGAGTAAACAAATTTTCCTAATCTTTCTGTTCAAGCGCCATCTAC	0.994 RPM ratio (pull-down/input)
GATGATTGTTCTCCCAGCTGATGAATTAGTCTTTTCGAGTAAACAAATTTTCCTAATCTTTCTGTTCAAGCGCCATCTAC	0.951 RPM ratio (pull-down/input)
GATGATTGTTCTCCCAGCTGATGAATTACCGCGGTCGAGTAAACAAATTTTCCTAATCTTTCTGTTCAAGCGCCATCTAC	0.87 RPM ratio (pull-down/input)
GATGATTGTTCTCCCAGCTGATGAATTCTTCGGCTCGAGTAAACAAATTTTCCTAATCTTTCTGTTCAAGCGCCATCTAC	0.765 RPM ratio (pull-down/input)
